This assay concerns Plasmodium falciparum NF54 stage V gametocytes. Put plainly: viability index relative to DMSO control (fraction); higher = less gametocyte killing. To be noted: 2.5 µM, incubation time: 72 h. Put shortly: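 Viability index is the count of red-stained particles in a well divided by the plate mean of solvent-only wells. Particles of 20–70 µm2 were counted in one imaged field per well after one to two hours with 3 µl of 2.5 µM MitoTracker Red CMXRos and 0.13% saponin. Before staining, P. falciparum NF54 stage V gametocytes in serum-free medium (0.75% gametocytemia, 1.25% hematocrit, 10 µl, 1,536-well plates) were kept with compound at 2.5 µM for 72 hr at 37°C under low oxygen.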

Where [1] appears, read: library set: Broad Institute DOS.

± gives the uncertainty stated by the source. Whole data set: some 9,900 compounds, median “viability index relative to DMSO control” near 1, cut for the lowest 2% near 0.85. This is one part of the list.

For the compound `O=C(NC[C@@H]1[C@@H](c2ccccc2)[C@H](CO)N1Cc1cccnc1)c1ccccn1`, the viability index under setting [1] is 1.1 ± 0.067. In turn, `CCS(=O)(=O)Nc1ccc2c(c1)C(=O)N(C)[C@H]1CC[C@H](CC(=O)NC3CCCCC3)O[C@@H]1CO2` displayed a viability index under setting [1] of 0.999 ± 0.11. Same read-out and setting: for `C[C@H](CO)N1C[C@H](C)[C@H](CN(C)CC2CCCCC2)OCCCC[C@H](C)Oc2ccc(NC(=O)Nc3ccc(C(F)(F)F)cc3)cc2C1=O` the value was 1.06 ± 0.063; for `CN(C[C@@H]1[C@H](c2ccccc2)[C@H](CO)N1Cc1ccccn1)S(C)(=O)=O`, 0.902 ± 0.069. Take `CN1C(=O)c2cc(NC(=O)c3ccc(F)c(F)c3)ccc2OC[C@H]2O[C@H](CC(=O)N3CCCCC3)CC[C@H]21`: the viability index under setting [1] was 1.04 ± 0.044.

Consider `COc1ccc2c3c([C@@H](CO)N(Cc4ccc(Cl)cc4)C[C@]33CCN(CC4CC4)CC3)n(C)c2c1`, for which the viability index under setting [1] was determined as 0.909 ± 0.1. Still for that read-out and setting: next, `COCCNC(=O)C[C@@H]1CC[C@@H]2[C@@H](COc3ccc(NC(=O)Nc4cccc(F)c4)cc3C(=O)N2C)O1`: 1.17 ± 0.1; `CO[C@H]1CN(C)C(=O)c2cc(NS(=O)(=O)CC(F)(F)F)ccc2OC[C@H](C)NC[C@H]1C`: 1.03 ± 0.038; `COCCNC(=O)C[C@H]1CC[C@H]2[C@@H](COC[C@@H](O)CN2S(=O)(=O)c2ccccc2F)O1`: 1.08 ± 0.054. Same read-out and setting: for `O=C(Cc1ccccn1)N[C@@H]1CC[C@H](CCNS(=O)(=O)c2cccc(F)c2)O[C@H]1CO` the value was 0.895 ± 0.17. On the same count and under the same terms, next, `CCS(=O)(=O)Nc1ccc2c(c1)C(=O)N(C)[C@@H]1CC[C@H](CC(=O)N[C@@H]3CCN(Cc4ccccc4)C3)O[C@H]1CO2`: 1.06 ± 0.07; `CC(C)(C)[S@@](=O)N1Cc2cc(C(=O)NCCN3CCCC3)nc(-c3cccc(-c4ccc(C#N)cc4)c3)c2[C@H]1CCO`: 1.07 ± 0.074. The compound `COCC(=O)N1C[C@H]2[C@@H](c3ccccc31)[C@@H](CO)N2Cc1cc(F)ccc1F` gave a viability index under setting [1] of 0.996 ± 0.051.

For the compound `CCC(=O)N1CC(=O)N2[C@@H](CO)[C@H](c3ccc(-c4ccc(C#N)cc4)cc3)[C@@H]2C1`, the viability index under setting [1] was 0.939 ± 0.026. Same read-out and setting: for `C[C@H](CO)N1C[C@H](C)[C@H](CN(C)C(=O)NC2CCCCC2)OCc2cn(nn2)CCCC1=O` the value was 0.9869 ± 0.0098; for `CCCN1C[C@@H](C)[C@@H](OC)CN(C)C(=O)c2ccc(NS(=O)(=O)c3cn(C)cn3)cc2OC[C@@H]1C`, 1.04 ± 0.11; for `COCC(=O)N1CC(=O)N2[C@H](CO)[C@@H](c3ccc(-c4ccncc4)cc3)[C@H]2C1`, 0.983 ± 0.1. `CN1C(=O)c2cc(NC(=O)c3cnccn3)ccc2OC[C@@H]2O[C@@H](CC(=O)NCC3CCCCC3)CC[C@H]21` yielded a viability index under setting [1] of 0.997 ± 0.055. `C[C@@H]1CCCCO[C@@H](CN(C)Cc2ccncc2)[C@@H](C)CN([C@@H](C)CO)C(=O)c2cc(NC(=O)Cc3ccccc3)ccc2O1` returned a viability index under setting [1] of 1.07 ± 0.041.

`CN1c2ccc(Br)cc2[C@@H]2[C@@H](CCN2C(=O)Nc2cccc(F)c2)[C@H]1CO` came in with a viability index under setting [1] of 0.974 ± 0.031. In turn, `C[C@@H]1CN([C@H](C)CO)C(=O)c2cc(Br)cnc2O[C@H]1CN(C)C(=O)Nc1ccc2c(c1)OCO2` returned a viability index under setting [1] of 0.988 ± 0.075.

`O=C(CN1CCOCC1)N1CC2(C1)[C@H](c1ccccc1)[C@@H](CO)N2Cc1cccc(F)c1`: the viability index under setting [1] is 1.056 ± 0.0046. Same read-out and setting: next, `COc1ccc(S(=O)(=O)Nc2ccc3c(c2)OC[C@H](C)NC[C@H](C)[C@H](OC)CN(C)C3=O)cc1`: 1.03 ± 0.055; `CO[C@H]1CN(C)C(=O)c2ccc(NC(=O)C3CCC3)cc2OC[C@H](C)N(Cc2ccccn2)C[C@H]1C`: 1.09 ± 0.018. Consider `O=C(CN1CCOCC1)N1CC2(C1)[C@@H](c1ccccc1)[C@@H](CO)N2Cc1cccc(F)c1`, for which the viability index under setting [1] stood at 1.08 ± 0.084. The same measure, in the same setting: next, `CS(=O)(=O)N1CC2(C1)[C@H](c1ccccc1)[C@@H](CO)N2Cc1ccccc1`: 1.08 ± 0.072; `N#C[C@H]1[C@@H](c2ccccc2C2=CCCC2)[C@H](CO)N1C(=O)NC1CCCCC1`: 1.06 ± 0.032; `CO[C@@H]1CN(C)C(=O)c2ccc(NC(=O)c3nc4ccccc4s3)cc2OC[C@H](C)N(Cc2cccnc2)C[C@H]1C`: 1.01 ± 0.021. The same measure, in the same setting: for `Cc1cccc(S(=O)(=O)N2C[C@H]3[C@@H](c4ccccc42)[C@@H](CO)N3C(=O)c2ccccc2)c1` the value was 1.09 ± 0.033; for `CC(C)CC#Cc1ccc([C@@H]2[C@@H](CO)N3C(=O)CN(C(=O)c4cccc(F)c4)C[C@H]23)cc1`, 0.9935 ± 0.0079; for `C/C=C/c1ccccc1[C@@H]1[C@@H](C#N)N(C(=O)NC2CCCCC2)[C@H]1CO`, 1.07 ± 0.016. In the case of `COc1ccc(S(=O)(=O)Nc2ccc3c(c2)CC(=O)N([C@@H](C)CO)C[C@H](C)[C@@H](CN(C)Cc2ccc(C(=O)Nc4ccccc4N)cc2)O3)cc1`, the viability index under setting [1] worked out at 0.872 ± 0.11.

In turn, `C[C@@H]1CN([C@@H](C)CO)C(=O)c2ccccc2-c2ccccc2CO[C@H]1CN(C)Cc1cccc(C(=O)O)c1` displayed a viability index under setting [1] of 0.987 ± 0.016.

As for `C[C@H](CO)N1C[C@H](C)[C@H](CN(C)Cc2ccc3c(c2)OCO3)Oc2ncc(-c3cccc(C(F)(F)F)c3)cc2C1=O`, the viability index under setting [1] came to 0.976 ± 0.025. Under setting [1], `CN1C(=O)c2cc(NC(=O)Cc3cccs3)ccc2OC[C@@H]2O[C@H](CC(=O)NCCCN3CCOCC3)CC[C@@H]21` displayed a viability index of 1.17 ± 0.11.

`O=C(C[C@H]1CC[C@H]2[C@@H](COC[C@@H](O)CN2C(=O)c2cc(Cl)cc(Cl)c2)O1)N1CCc2ccccc2C1`: the viability index under setting [1] was 1.018 ± 0.0091. Same read-out and setting: for `C[C@@H]1CN([C@@H](C)CO)C(=O)c2cc(NC(=O)Nc3ccc4c(c3)OCO4)ccc2O[C@@H](C)CCCCO[C@@H]1CN(C)C(=O)CCCN(C)C` the value was 1.08 ± 0.023; for `CO[C@H]1CN(C)C(=O)c2cc(NS(C)(=O)=O)ccc2OC[C@H](C)N(C(=O)C2CCOCC2)C[C@@H]1C`, 1.14 ± 0.061; for `C(=C\c1ccc([C@H]2[C@@H]3CN(Cc4ccc5c(c4)OCO5)C[C@H]2N3)cc1)/c1ccccc1`, 1.01 ± 0.032. In turn, `C/C=C/c1ccc([C@H]2[C@H](CO)N[C@H]2CN(CC(C)C)C(=O)c2ccccn2)cc1` came in with a viability index under setting [1] of 0.962 ± 0.042. In the case of `CCCNC(=O)N1CC(=O)N2[C@@H](CO)[C@H](c3ccc(C#Cc4cccc(OC)c4)cc3)[C@@H]2C1`, the viability index under setting [1] was 1 ± 0.028. The same measure, in the same setting: next, `O=C(Nc1cccc(F)c1)N1CCCCN2[C@@H](CO)[C@@H](c3ccc(C#Cc4cccnc4)cc3)[C@@H]2C1`: 0.979 ± 0.089; `COc1ccc(S(=O)(=O)N(C)C[C@H]2Oc3c(NC(=O)c4nc5ccccc5s4)cccc3C(=O)N([C@@H](C)CO)C[C@H]2C)cc1`: 0.901 ± 0.025; `CO[C@@H]1CN(C)C(=O)c2cc(NS(=O)(=O)c3cn(C)cn3)ccc2OC[C@@H](C)NC[C@H]1C`: 1.01 ± 0.095.

Under “library set: Broad Institute Blood Stage”, `CC(C)(C)[S@@](=O)N1Cc2cc(C(=O)NCCc3ccncc3)nc(-c3cccc(-c4ccccc4)c3)c2[C@H]1CCO` registered a viability index of 0.763 ± 0.047.

For the origin of these results see the supplement of paper PMC4723716.
